The values below come from article PMC7096399, “The Na,K-ATPase acts upstream of phosphoinositide PI(4,5)P2 facilitating unconventional secretion of Fibroblast Growth Factor 2” (Communications Biology, 2020).

Assay [1] deals with T1, GST-α1-CD3, third loop of the cytoplasmic domain of α1 alone (human).
T1 construct: α1 subunit of the Na,K-ATPase, human, third loop of the cytoplasmic domain, […]; also called loop 3 alone; source: E. coli, purified according to standard procedures; not shown: GST, N-terminal, kept
Put plainly: AlphaScreen or HTRF; competition: His-FGF2-wt (62 nM) and GST-α1 variant (15 nM) with ∆N25-FGF2 competitor from 22.5 µM to 1.4 nM; apparent IC50 taken as the apparent KD. The settings on record: both partners purified.

The target in assay [2] is T2, GST-α1-subCD3, small sub-domain of loop 3 of the cytoplasmic domain of α1 (human).
T2 construct: α1 subunit of the Na,K-ATPase, human, sub-domain of loop 3 of the cytoplasmic domain, […]; also called GST-tagged α1-subCD3; source: E. coli, purified according to standard procedures; not shown: GST, N-terminal, kept
Described as above. The settings on record: both partners purified.

B1: ∆N25-FGF2, non-tagged form of FGF2 lacking 25 residues at the N-terminus (domain or fragment)
chain: not shown
notes: FGF2, 18 kDa isoform ([…]), lacking 25 residues at the N-terminus; Untagged; also called untagged version of FGF2; source: E. coli, purified according to standard procedures
B1: the Kd in assay [1] amounted to 1300 nM; in assay [2] it was 800 nM.
